About 2,200 (0.71%) of roughly 310,000 compounds showed an effect of 50% or more. The effect is printed as a negative number. This is one part of the list.
Molecular target: human ether-à-go-go-related gene (hERG) potassium channel (human, UniProt Q12809)
Test: primary screen, population patch clamp on CHO cells stably expressing hERG

Chain of human ether-à-go-go-related gene (hERG) potassium channel (Q12809 whole entry, looked up): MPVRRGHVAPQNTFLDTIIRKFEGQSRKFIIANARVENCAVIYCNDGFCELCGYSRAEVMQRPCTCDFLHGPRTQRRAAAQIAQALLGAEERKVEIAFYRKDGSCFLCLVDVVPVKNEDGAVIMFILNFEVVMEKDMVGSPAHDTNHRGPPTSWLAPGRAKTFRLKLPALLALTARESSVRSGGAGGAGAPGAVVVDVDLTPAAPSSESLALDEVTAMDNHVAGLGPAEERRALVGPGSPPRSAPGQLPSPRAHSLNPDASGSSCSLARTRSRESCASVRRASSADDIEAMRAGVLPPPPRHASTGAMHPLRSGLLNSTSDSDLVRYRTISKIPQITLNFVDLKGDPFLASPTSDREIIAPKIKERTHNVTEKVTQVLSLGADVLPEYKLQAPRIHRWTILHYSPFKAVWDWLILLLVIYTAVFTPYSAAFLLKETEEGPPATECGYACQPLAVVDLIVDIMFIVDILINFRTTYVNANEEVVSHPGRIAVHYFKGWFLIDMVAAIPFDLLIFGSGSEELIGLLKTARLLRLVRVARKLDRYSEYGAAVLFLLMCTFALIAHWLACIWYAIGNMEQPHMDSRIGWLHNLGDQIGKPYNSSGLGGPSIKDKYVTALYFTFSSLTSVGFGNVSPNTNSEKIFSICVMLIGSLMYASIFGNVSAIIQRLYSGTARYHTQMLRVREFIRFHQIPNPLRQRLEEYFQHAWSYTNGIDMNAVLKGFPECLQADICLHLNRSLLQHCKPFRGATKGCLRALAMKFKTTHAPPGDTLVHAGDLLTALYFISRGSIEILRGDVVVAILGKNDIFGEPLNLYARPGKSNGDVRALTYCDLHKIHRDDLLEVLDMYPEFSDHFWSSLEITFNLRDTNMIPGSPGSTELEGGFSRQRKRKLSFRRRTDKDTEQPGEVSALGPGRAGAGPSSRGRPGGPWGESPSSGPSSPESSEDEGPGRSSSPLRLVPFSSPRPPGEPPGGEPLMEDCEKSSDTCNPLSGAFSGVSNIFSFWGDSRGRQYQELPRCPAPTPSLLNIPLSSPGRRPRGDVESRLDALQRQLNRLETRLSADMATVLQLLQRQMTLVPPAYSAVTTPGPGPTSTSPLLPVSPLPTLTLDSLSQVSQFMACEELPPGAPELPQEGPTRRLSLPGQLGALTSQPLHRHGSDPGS

| SMILES | hERG current change (%, negative = inhibition) at 1uM [%] |
| --- | --- |
| Nc1cccc(NC(=O)CCC(=O)NCc2ccco2)c1 | 16 |
| Br.CC1=CS(=O)(=O)CC1Sc1ncn[nH]1 (stereo not shown) | 3.31 |
| CC(C)N(C(=O)NC(=O)Nc1ccccn1)S(C)(=O)=O | 7.36 |
| Cc1ccc(C(=O)NCCNc2ccc(Cl)cc2[N+](=O)[O-])o1 | -11 |
| O=S(=O)(c1ccccc1)N1CCN(C(=S)NCCCN2CCOCC2)CC1 | 17.7 |
| O=C(CCCC(=O)N/N=C/c1ccccc1C(=O)O)N/N=C/c1ccccc1C(=O)O | 14.3 |
| CS(=O)(=O)c1ccccc1C(=O)Nc1ccc2sccc2c1 | 12.4 |
| COc1cccc(N2C(C(C)=O)=NN(c3ccccc3)C2c2ccc(N3CCOCC3)cc2)c1 (stereo not shown) | 10.6 |
| COc1ccc(C2/C=C\CN(S(=O)(=O)c3ccc4ccccc4c3)CC(=O)N2Cc2ccc(F)cc2)cc1 (stereo not shown) | 9.7 |
| COc1ccc2c(CC(=O)Nc3ncc(C)s3)coc2c1 | 8.3 |
| CCOC(=O)C1CCCN(S(=O)(=O)c2cccc3cccnc23)C1 (stereo not shown) | 10.1 |
| CN(CC(=O)N1CCOCC1)C(=O)CSc1nc2ccccc2s1 | 3.83 |
| COc1ccc(N2CCN(S(=O)(=O)c3ccc(-c4cc(C)no4)s3)CC2)cc1 | 20.2 |
| Cc1cc(N2CCOCC2)ccc1/C=C\[N+](=O)[O-] | 5.75 |
| Cc1ccc(NS(=O)(=O)c2cc(C(=O)NCCSc3ccc(C)cc3)ccc2C)cc1 | 8.34 |
| CN(C)c1ccc(CNc2ccccn2)cc1 | 14.4 |
| Oc1ccccc1/C=N/n1cnnc1 | 15.6 |
| CCn1nc(C(=O)NNC(=O)C2CSC3(C)CCC(=O)N23)c2ccccc2c1=O (stereo not shown) | 8.69 |
| Cc1ccnc(NC(=O)CCC(=O)N(CC(=O)NCCc2ccccc2)c2ccc(F)cc2)c1 | 9.49 |
| Cc1cccc(NC2=C(Cl)C(=O)OC2OC(C)C)c1 (stereo not shown) | 1.22 |
| COc1ccc(/C=N/NC(=O)C(=O)/C=C2\NC3(CCCC3)Cc3ccccc32)cc1 | 8.09 |
| O=[N+]([O-])c1ccccc1S(=O)(=O)N1CCCc2ccccc21 | 9.08 |
| CSCC[C@H](NC(=O)NCc1ccccc1F)C(=O)O | 14.1 |
| Cl.O=S(=O)(c1cccs1)N1CCN(C/C=C/c2ccccc2)CC1 | -6.27 |
| O=S1(=O)c2ccccc2Nc2ccccc21 | 18.2 |

Source: article PMC4336329 (PLoS ONE, 2015)
